Test in all cases: cell count relative to DMSO control; melanoma cells; higher = more viable cells
Details in all cases: library dose: low library concentration; 72 h

In assay [1] the test system is WM115.
In assay [2] the test system is WM1716.
Assay [3] relates to WM1745.
For assay [4], the system named is WM3526.
Assay [5] concerns WM3619.
Assay [6] has as its system WM451Lu.

The list shows a part of the results. Single values are uncertain, as repeats are few or missing.
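Also: cell number obtained by counting DAPI-stained nuclei in high-throughput microscope images with image analysis software, screen run in 1,536-well plates.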

Turning to `CC(C)C[C@H](NC(=O)[C@H](Cc1ccccc1)NC(=O)c1cnccn1)B(O)O` [Bortezomib] + CCN(CC)CCCCNc1ncc2cc(-c3cc(OC)cc(OC)c3)c(NC(=O)NC(C)(C)C)nc2n1 [PD173074] (first compound 0.001 µM, partner dose 0.1 µM), the cell count in assay [1] was found to be 88.6%; in assay [2], 42%; in assay [3], 74.6%; in assay [4], 94.8%; in assay [5], 14.5%; in assay [6], 88.9%.

Regarding `Cn1c(=O)n(-c2ccc(C(C)(C)C#N)cc2)c2c3cc(-c4cnc5ccccc5c4)ccc3ncc21` + CCCCCCCCCCCC1=C(O)C(=O)C=C(O)C1=O [Embelin] (first compound 0.004 µM, partner dose 1.2 µM), the cell count in assay [1] was found to be 94.3%; in assay [2], 108%; in assay [3] it was 97.1%; in assay [4] it was 82.2%; in assay [5], 87.1%; in assay [6], 94.6%.

Consider `Cc1cn(-c2cc(NC(=O)c3ccc(C)c(Nc4nccc(-c5cccnc5)n4)c3)cc(C(F)(F)F)c2)cn1` [nilotinib] + O=S(=O)(c1ccccc1)N(CC(F)(F)F)c1ccc(C(O)(C(F)(F)F)C(F)(F)F)cc1 [T0901317] (first compound 0.2 µM, partner dose 1.4 µM), for which the cell count was 104% in assay [1]; 100% in assay [2]; 75.3% in assay [3]; 81.7% in assay [4]; 92.3% in assay [5]; 101% in assay [6].

For the compound `Cn1c(=O)n(-c2ccc(C(C)(C)C#N)cc2)c2c3cc(-c4cnc5ccccc5c4)ccc3ncc21` + Clc1ccc(Nc2nnc(Cc3ccncc3)c3ccccc23)cc1 [vatalanib] (first compound 0.004 µM, partner dose 2 µM), the cell count in assay [1] worked out at 90.4%; in assay [2], 86.6%; in assay [3], 73%; in assay [4] it was 97.1%; in assay [5], 72.2%; in assay [6], 89.9%.

As for `Cc1cc(Nc2cc(N3CCN(C)CC3)nc(/C=C/c3ccccc3)n2)n[nH]1` + Nc1nc(F)nc2c1ncn2[C@@H]1O[C@H](CO)[C@@H](O)[C@@H]1O [fludarabine] (first compound 0.04 µM, partner dose 0.2 µM), the cell count amounted to 91.6% in assay [1]; 104% in assay [2]; 84.4% in assay [3]; 30% in assay [4]; 99.9% in assay [5]; 60.1% in assay [6].

Take `Cn1c(=O)n(-c2ccc(C(C)(C)C#N)cc2)c2c3cc(-c4cnc5ccccc5c4)ccc3ncc21` + O=C(Nc1ccccc1)c1cc([N+](=O)[O-])ccc1Cl [GW9662] (first compound 0.004 µM, partner dose 2 µM): the cell count was determined as 99.4% in assay [1]; 96.5% in assay [2]; 101% in assay [3]; 102% in assay [4]; 83.5% in assay [5]; 140% in assay [6].

Turning to `COc1ccc(C2=N[C@@H](c3ccc(Cl)cc3)[C@@H](c3ccc(Cl)cc3)N2C(=O)N2CCNC(=O)C2)c(OC(C)C)c1` [Nutlin-3] + Cc1nc(Nc2ncc(C(=O)Nc3c(C)cccc3Cl)s2)cc(N2CCN(CCO)CC2)n1 [dasatanib] (first compound 0.1 µM, partner dose 0.004 µM), the cell count in assay [1] is 75.3%; in assay [2], 85.9%; in assay [3] it was 63.5%; in assay [4], 96.1%; in assay [5] it was 82.1%; in assay [6], 97.3%.

For the compound `Cc1cc(Nc2cc(N3CCN(C)CC3)nc(/C=C/c3ccccc3)n2)n[nH]1` + Oc1cc(-c2nc(-c3ccccc3)[nH]c2-c2ccncc2)ccc1Cl [L779450] (first compound 0.04 µM, partner dose 0.2 µM), the cell count in assay [1] worked out at 75%; in assay [2] it was 94.5%; in assay [3], 85.1%; in assay [4], 65.6%; in assay [5], 84%; in assay [6] it was 100%.

With `Cc1cn(-c2cc(NC(=O)c3ccc(C)c(Nc4nccc(-c5cccnc5)n4)c3)cc(C(F)(F)F)c2)cn1` [nilotinib] + Cn1cnc2c(F)c(Nc3ccc(Br)cc3Cl)c(C(=O)NOCCO)cc21 [selumetinib] (first compound 0.2 µM, partner dose 0.015 µM), the cell count came out at 85.9% in assay [1]; 111% in assay [2]; 86% in assay [3]; 100% in assay [4]; 84.3% in assay [5]; 118% in assay [6].

As for `COc1ccc(C2=N[C@@H](c3ccc(Cl)cc3)[C@@H](c3ccc(Cl)cc3)N2C(=O)N2CCNC(=O)C2)c(OC(C)C)c1` [Nutlin-3] + CN(C)S(=O)(=O)c1ccc2c(c1)/C(=C/c1cc3c([nH]1)CCCC3)C(=O)N2 [SU6656] (first compound 0.1 µM, partner dose 0.4 µM), the cell count turned out to be 82.2% in assay [1]; 112% in assay [2]; 83.2% in assay [3]; 113% in assay [4]; 122% in assay [5]; 92% in assay [6].

On to `Cn1c(=O)n(-c2ccc(C(C)(C)C#N)cc2)c2c3cc(-c4cnc5ccccc5c4)ccc3ncc21` + Cn1cc(/C=C2\C(=O)Nc3cccnc32)c2ccccc21 [GW441756] (first compound 0.004 µM, partner dose 0.4 µM), for which the cell count in assay [1] was found to be 91.8%; in assay [2], 94.7%; in assay [3], 126%; in assay [4], 105%; in assay [5], 139%; in assay [6], 114%.

As to `CC(C)C[C@H](NC(=O)[C@H](Cc1ccccc1)NC(=O)c1cnccn1)B(O)O` [Bortezomib] + C[C@@H](Oc1cc(-c2cnn(C3CCNCC3)c2)cnc1N)c1c(Cl)ccc(F)c1Cl [Crizotinib] (first compound 0.001 µM, partner dose 0.2 µM), the cell count in assay [1] was found to be 91.8%; in assay [2], 24.3%; in assay [3], 67%; in assay [4], 61.7%; in assay [5], 15.1%; in assay [6], 99%.

On to `Cc1cn(-c2cc(NC(=O)c3ccc(C)c(Nc4nccc(-c5cccnc5)n4)c3)cc(C(F)(F)F)c2)cn1` [nilotinib] + COc1ccc2c(c1)CCC1C2CCC2(C)C(NCCCCCCN3C(=O)C=CC3=O)CCC12 [U73122] (first compound 0.2 µM, partner dose 0.4 µM), for which the cell count was 96.3% in assay [1]; 82.5% in assay [2]; 77.2% in assay [3]; 111% in assay [4]; 122% in assay [5]; 105% in assay [6].

On to `COc1ccc(C2=N[C@@H](c3ccc(Cl)cc3)[C@@H](c3ccc(Cl)cc3)N2C(=O)N2CCNC(=O)C2)c(OC(C)C)c1` [Nutlin-3] + COC(=O)c1sccc1S(=O)(=O)Nc1ccc(Nc2ccccc2)cc1OC [GSK0660] (first compound 0.1 µM, partner dose 1 µM), for which the cell count worked out at 93.5% in assay [1]; 104% in assay [2]; 102% in assay [3]; 84.9% in assay [4]; 94.1% in assay [5]; 105% in assay [6].

On to `Cc1cn(-c2cc(NC(=O)c3ccc(C)c(Nc4nccc(-c5cccnc5)n4)c3)cc(C(F)(F)F)c2)cn1` [nilotinib] + NC(=O)c1ccc(N(C(N)=O)c2c(F)cccc2F)nc1-c1ccc(F)cc1F [VX702] (first compound 0.2 µM, partner dose 0.4 µM), for which the cell count in assay [1] worked out at 97.9%; in assay [2], 105%; in assay [3], 97.6%; in assay [4], 92.9%; in assay [5], 98.6%; in assay [6] it was 89.8%.

For the compound `Cc1cc(Nc2cc(N3CCN(C)CC3)nc(/C=C/c3ccccc3)n2)n[nH]1` + COc1cc2c(Oc3ccc4[nH]c(C)cc4c3F)ncnc2cc1OCCCN1CCCC1 [cediranib] (first compound 0.04 µM, partner dose 0.4 µM), the cell count in assay [1] was determined as 86.1%; in assay [2], 95.1%; in assay [3], 67.4%; in assay [4], 96.2%; in assay [5], 94%; in assay [6], 80.3%.

Take `CC(C)C[C@H](NC(=O)[C@H](Cc1ccccc1)NC(=O)c1cnccn1)B(O)O` [Bortezomib] + Cc1nc(Nc2ncc(C(=O)Nc3c(C)cccc3Cl)s2)cc(N2CCN(CCO)CC2)n1 [dasatanib] (first compound 0.001 µM, partner dose 0.004 µM): the cell count is 83% in assay [1]; 34.5% in assay [2]; 68.4% in assay [3]; 71.4% in assay [4]; 15.1% in assay [5]; 32.3% in assay [6].

For the compound `Cn1c(=O)n(-c2ccc(C(C)(C)C#N)cc2)c2c3cc(-c4cnc5ccccc5c4)ccc3ncc21` + CC(C)C[C@H](NC(=O)[C@H](Cc1ccccc1)NC(=O)c1cnccn1)B(O)O [Bortezomib] (first compound 0.004 µM, partner dose 0.001 µM), the cell count in assay [1] was 88.3%; in assay [2], 48.8%; in assay [3], 89.4%; in assay [4], 87.5%; in assay [5] it was 30.9%; in assay [6], 96.2%.

For `Cc1cn(-c2cc(NC(=O)c3ccc(C)c(Nc4nccc(-c5cccnc5)n4)c3)cc(C(F)(F)F)c2)cn1` [nilotinib] + C[C@@H]1CCN(C(=O)CC#N)C[C@@H]1N(C)c1ncnc2[nH]ccc12 [CP690550] (first compound 0.2 µM, partner dose 1 µM), the cell count in assay [1] was 109%; in assay [2] it was 91.3%; in assay [3], 95.6%; in assay [4] it was 84.6%; in assay [5], 103%; in assay [6], 126%.

With `Cc1cc(Nc2cc(N3CCN(C)CC3)nc(/C=C/c3ccccc3)n2)n[nH]1` + C[C@@H]1CCN(C(=O)CC#N)C[C@@H]1N(C)c1ncnc2[nH]ccc12 [CP690550] (first compound 0.04 µM, partner dose 1 µM), the cell count in assay [1] came out at 99.7%; in assay [2], 95.5%; in assay [3], 84%; in assay [4], 91.7%; in assay [5], 102%; in assay [6], 104%.

`CC(C)C[C@H](NC(=O)[C@H](Cc1ccccc1)NC(=O)c1cnccn1)B(O)O` [Bortezomib] + CO[C@H]1C[C@@H]2CC[C@@H](C)[C@@](O)(O2)C(=O)C(=O)N2CCCC[C@H]2C(=O)O[C@H]([C@H](C)C[C@@H]2CC[C@@H](OCCO)[C@H](OC)C2)CC(=O)[C@H](C)/C=C(\C)[C@@H](O)[C@@H](OC)C(=O)[C@H](C)C[C@H](C)/C=C/C=C/C=C/1C [everolimus] (first compound 0.001 µM, partner dose 0.02 µM): the cell count in assay [1] is 68.1%; in assay [2] it was 25.2%; in assay [3], 44.3%; in assay [4] it was 65%; in assay [5] it was 36.8%; in assay [6], 86%.

With `COc1ccc(C2=N[C@@H](c3ccc(Cl)cc3)[C@@H](c3ccc(Cl)cc3)N2C(=O)N2CCNC(=O)C2)c(OC(C)C)c1` [Nutlin-3] + OCCn1cc(-c2cnc3nnn(Cc4ccc5ncccc5c4)c3n2)cn1 [PF04217903] (first compound 0.1 µM, partner dose 1 µM), the cell count in assay [1] was determined as 94.8%; in assay [2] it was 86.9%; in assay [3], 107%; in assay [4], 115%; in assay [5], 90.3%; in assay [6], 105%.

For the compound `Cn1c(=O)n(-c2ccc(C(C)(C)C#N)cc2)c2c3cc(-c4cnc5ccccc5c4)ccc3ncc21` + C[C@@H](Oc1cc(-c2cnn(C3CCNCC3)c2)cnc1N)c1c(Cl)ccc(F)c1Cl [Crizotinib] (first compound 0.004 µM, partner dose 0.2 µM), the cell count was determined as 85.9% in assay [1]; 105% in assay [2]; 91.4% in assay [3]; 99.5% in assay [4]; 79.4% in assay [5]; 95.8% in assay [6].

For `Cn1c(=O)n(-c2ccc(C(C)(C)C#N)cc2)c2c3cc(-c4cnc5ccccc5c4)ccc3ncc21` + COC(=O)c1sccc1S(=O)(=O)Nc1ccc(Nc2ccccc2)cc1OC [GSK0660] (first compound 0.004 µM, partner dose 1 µM), the cell count in assay [1] turned out to be 85.7%; in assay [2] it was 85.1%; in assay [3], 94.6%; in assay [4], 83.8%; in assay [5] it was 82.3%; in assay [6], 113%.

(Values after the supplement of paper PMC4604168 (melanoma cell lines).)
